Results published in PubChem BioAssay AID504333 (National Center for Advancing Translational Sciences (NCATS), 2011).
Out of some 360,000 compounds screened, about 16,000 (4.4%) were called active. The shares of active, inactive and inconclusive entries below differ from those in the screen. The call rests on the fitted dose curve; in most records, active means well fitted inhibition curve with a large enough effect; inconclusive means small, poorly fitted or top-dose-only effect; inactive means no such curve, though single readings can be large or run the other way. Where the call is inconclusive, the potency comes from a doubtful curve fit.

These compounds were tested against Bromodomain adjacent to zinc finger domain protein 2B (Homo sapiens) (UniProt Q9UIF8) (assay: qHTS Assay for Inhibitors of BAZ2B). Settings: AlphaScreen BAZ2B-H3K14Ac peptide displacement; series mostly up to 114 µM.
Outline: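 Protein-peptide AlphaScreen: BAZ2B 50 nM, b-H3K14Ac 50 nM, 1x PBS pH 7.4 + 0.01% Tween-20. Preincubation 30 min RT; cpd 30 min RT (top 110 uM); beads 20 min RT, light-protected.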
Further: nearly all actives have a fitted effect of over 60% in size.
Potency means the concentration at half of the fitted maximal effect; tags describe the fitted curve by direction and shape.

UniProt Q9UIF8, sequence (Q9UIF8 whole entry, looked up, the tested form may be a part): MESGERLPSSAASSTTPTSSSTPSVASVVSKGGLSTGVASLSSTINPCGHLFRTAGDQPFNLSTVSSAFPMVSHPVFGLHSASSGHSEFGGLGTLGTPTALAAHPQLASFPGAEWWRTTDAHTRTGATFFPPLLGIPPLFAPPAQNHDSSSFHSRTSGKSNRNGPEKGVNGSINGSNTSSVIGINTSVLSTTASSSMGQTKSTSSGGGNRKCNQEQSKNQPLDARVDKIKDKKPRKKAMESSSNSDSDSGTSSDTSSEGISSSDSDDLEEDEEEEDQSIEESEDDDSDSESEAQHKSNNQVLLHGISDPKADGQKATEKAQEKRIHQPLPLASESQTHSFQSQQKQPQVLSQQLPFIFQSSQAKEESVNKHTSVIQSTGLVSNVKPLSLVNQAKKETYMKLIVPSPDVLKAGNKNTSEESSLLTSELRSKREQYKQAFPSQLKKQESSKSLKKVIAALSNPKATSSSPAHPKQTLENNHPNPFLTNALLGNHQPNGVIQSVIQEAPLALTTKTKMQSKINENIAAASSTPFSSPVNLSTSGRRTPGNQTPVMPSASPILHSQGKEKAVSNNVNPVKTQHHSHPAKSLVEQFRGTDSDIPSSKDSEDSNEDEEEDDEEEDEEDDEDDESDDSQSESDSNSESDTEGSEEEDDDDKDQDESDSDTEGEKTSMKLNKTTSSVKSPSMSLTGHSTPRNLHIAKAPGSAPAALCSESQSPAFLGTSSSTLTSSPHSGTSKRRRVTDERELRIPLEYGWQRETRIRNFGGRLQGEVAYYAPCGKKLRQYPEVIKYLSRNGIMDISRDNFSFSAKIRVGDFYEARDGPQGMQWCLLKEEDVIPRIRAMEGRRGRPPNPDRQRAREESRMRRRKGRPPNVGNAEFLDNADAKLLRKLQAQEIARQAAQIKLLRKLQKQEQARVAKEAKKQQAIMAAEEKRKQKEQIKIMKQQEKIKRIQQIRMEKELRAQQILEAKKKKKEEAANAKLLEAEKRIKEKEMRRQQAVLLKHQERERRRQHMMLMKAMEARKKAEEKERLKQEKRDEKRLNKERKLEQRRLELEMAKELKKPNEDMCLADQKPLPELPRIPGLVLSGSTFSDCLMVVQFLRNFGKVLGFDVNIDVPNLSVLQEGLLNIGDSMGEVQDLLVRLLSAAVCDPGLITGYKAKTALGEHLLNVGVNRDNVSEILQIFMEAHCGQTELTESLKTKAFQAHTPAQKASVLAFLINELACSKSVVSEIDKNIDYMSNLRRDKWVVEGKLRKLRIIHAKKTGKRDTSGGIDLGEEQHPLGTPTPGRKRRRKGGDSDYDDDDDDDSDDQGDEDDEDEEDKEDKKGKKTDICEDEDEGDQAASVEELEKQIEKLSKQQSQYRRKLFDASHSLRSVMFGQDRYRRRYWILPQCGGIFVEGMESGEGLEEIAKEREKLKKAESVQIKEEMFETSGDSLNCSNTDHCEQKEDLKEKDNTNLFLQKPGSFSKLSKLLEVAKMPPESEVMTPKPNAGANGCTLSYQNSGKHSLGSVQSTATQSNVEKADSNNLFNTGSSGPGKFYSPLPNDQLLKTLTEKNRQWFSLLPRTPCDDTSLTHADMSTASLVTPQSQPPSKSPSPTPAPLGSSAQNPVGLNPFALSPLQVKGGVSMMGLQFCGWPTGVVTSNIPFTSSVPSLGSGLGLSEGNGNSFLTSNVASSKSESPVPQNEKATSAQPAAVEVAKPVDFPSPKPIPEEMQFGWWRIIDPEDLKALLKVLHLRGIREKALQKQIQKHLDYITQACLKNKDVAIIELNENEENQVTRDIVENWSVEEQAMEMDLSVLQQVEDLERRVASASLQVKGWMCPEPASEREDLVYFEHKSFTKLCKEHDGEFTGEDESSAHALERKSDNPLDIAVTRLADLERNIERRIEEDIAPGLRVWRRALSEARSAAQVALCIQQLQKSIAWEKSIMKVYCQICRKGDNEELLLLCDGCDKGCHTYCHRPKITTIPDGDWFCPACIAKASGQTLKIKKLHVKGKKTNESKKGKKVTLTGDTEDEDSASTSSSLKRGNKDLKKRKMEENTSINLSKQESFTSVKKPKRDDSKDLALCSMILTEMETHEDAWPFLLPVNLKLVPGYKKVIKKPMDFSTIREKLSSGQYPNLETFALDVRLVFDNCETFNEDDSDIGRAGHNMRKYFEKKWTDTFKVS

Compound	Potency
O=S(=O)(c1ccc(Cl)cc1)c1nnn2c1nc(NC1CCCCC1)c1sccc12	inconclusive: 79.4 µM [inhibitor, single point]
O=S(=O)(c1ccc2nc(Nc3ccccc3)ccc2c1)N1CCCCC1	active: 39.8 µM
O=C1COc2ccc(-c3csc(=Nc4ccc(OC(F)F)cc4)n3CC3CCCO3)cc2N1 (stereo unspecified)	inconclusive: 11.2 µM [inhibitor, full curve]
CN(C)c1ccc(NC(=O)Cn2nnc3sc4c(c3c2=O)CCC(C(C)(C)C)C4)cc1 (stereo unspecified)	inconclusive: 5.01 µM [inhibitor, full curve]
O=[N+]([O-])c1ccc(N2CCC(=NOCc3ccc(Cl)cc3)CC2)cc1	inconclusive: 15.8 µM [inhibitor, partial curve]
COCCCn1c(=O)/c(=C\c2cccc(OC)c2OC)s/c1=C(/C#N)C(=O)Nc1ccc(C(=O)O)cc1	active: 44.7 µM
CNC(=O)c1[nH]cnc1C(=O)Nc1ccccc1C	inconclusive: 89.1 µM [inhibitor, single point]
CCCN(CCO)Cc1cccc(Br)c1	active: 50.1 µM
Cc1c(C(=O)N2CCN(S(=O)(=O)c3ccc(F)cc3)CC2)oc2ccccc12	inactive
COc1cc(/C=N/Nc2nc(Nc3ccccc3)nc(N3CCCCC3)n2)ccc1OCC(=O)O	inconclusive: 44.7 µM [inhibitor, partial curve]
O=C1C=C(c2ccc3cc[nH]c3c2)C[C@@H](c2ccc3c(c2)OCO3)C1	active: 50.1 µM
Clc1ccc(CNc2nc(CN3CCOCC3)nc3scc(-c4ccccc4)c23)cc1	active: 50.1 µM
CCCCCCCn1c(C)nnc1-c1cnn(C)c1N	inconclusive: 89.1 µM [inhibitor, single point]
O=C(O)c1cc(N/N=C/c2c(O)ccc3ccccc23)ccc1Cl	active: 39.8 µM
CSc1ccccc1NC(=O)CN(C)CC(=O)Nc1ccc(N2CCOCC2)cc1	inactive
Cc1ncc(CN2CCCC(C(=O)Nc3ccc(-n4ccnc4C)cc3)C2)cn1 (stereo unspecified)	inactive
Cc1cc(C(=O)CCC(=O)Nc2ncccc2C)c(C)s1	inconclusive: 50.1 µM [inhibitor, partial curve]
O=C(NC(=S)Nc1ccc(N2CCOCC2)cc1)c1ccc2c(c1)OCCO2	inconclusive: 22.4 µM [inhibitor, full curve]
O=C(NC1CC1)C1CCN(C(=O)c2ccccc2Cl)CC1	inconclusive: 3.55 µM [inhibitor, single point]
COc1ccc(-n2cnc3cc(C(=O)NC4CCCCCC4)ccc32)cc1	inconclusive: 89.1 µM [inhibitor, single point]
O=[N+]([O-])c1ccc(-n2nncc2-c2ccc(Cl)cc2)cc1	inconclusive: 89.1 µM [inhibitor, single point]
COc1cccc(C2CC(c3cccs3)=NN2C(=S)Nc2ccccc2)c1OC (stereo unspecified)	inconclusive: 70.8 µM [inhibitor, single point]
O=C(O)c1ccccc1C(=O)N1CCN(c2ncccn2)CC1	inconclusive: 89.1 µM [inhibitor, single point]
COc1ccc(C(=O)Nc2ccc(C(=O)Nc3cccnc3)cc2)cc1	inactive

Compound	Potency
COc1ccccc1/C=C/C(=O)OCC(=O)c1cc(C)n(C)c1C	inconclusive: 44.7 µM [inhibitor, partial curve]
Cc1ccc2c(c1)C1(C(=O)N2)N2CCCC2C(C(=O)c2ccc3ccccc3c2)C12C(=O)Nc1ccccc12 (stereo unspecified)	inconclusive: 28.2 µM [inhibitor, partial curve]
COc1cccc(/C=C2\SC(=S)N(CCCC(=O)N3CCCC3)C2=O)c1	active: 31.6 µM
COc1ccccc1C(=O)COC(=O)c1nc2nc(C)cc(C)n2n1	inactive
CCCNS(=O)(=O)c1cc(CN2C(=O)c3cccnc3C2=O)ccc1OC	inconclusive: 79.4 µM [inhibitor, single point]
COc1ccc(C)cc1NC(=O)c1cnc2ccc(C)cn2c1=O	inactive
CCN1C(=NCC(C)C)N[C@@H](c2cccc(C(F)(F)F)c2)C(C(=O)OC)=C1C	inconclusive: 89.1 µM [inhibitor, single point]
Cc1nn(C)c(C)c1CCC(=O)N1CCCC(N2CCN(c3ccc(F)cc3)CC2)C1 (stereo unspecified)	inactive
O=C1c2cccnc2C(=O)N1C1CCCCC1	active: 79.4 µM
COc1ccc(NC(=O)CN2C(=O)NC(C)(C3CC3)C2=O)c(OC)c1 (stereo unspecified)	inactive
O=S(=O)(Nc1ccccc1Cl)c1ccc2[nH]c(=S)oc2c1	inconclusive: 79.4 µM [inhibitor, single point]
CC1(c2ccc(OC(F)F)cc2)NC(=O)N(CC(=O)Nc2ccc(N3CCCCC3)cc2)C1=O (stereo unspecified)	inconclusive: 39.8 µM [inhibitor, partial curve]
Cc1cc(C)cc(NC(=O)C2CCCN2S(=O)(=O)c2ccc3nc(-c4ccccc4)[nH]c3c2)c1 (stereo unspecified)	active: 79.4 µM
COC(=O)c1sc(-c2ccccc2)cc1NC(=O)Nc1ccc(F)cc1	inactive
COc1ccc(C(CC(=O)NCc2ccc(Cl)cc2)N2Cc3ccccc3C2=O)cc1OC (stereo unspecified)	inactive
CCN(CC)S(=O)(=O)c1ccc(NC2=NS(=O)(=O)c3ccccc32)cc1	inconclusive: 6.31 µM [inhibitor, single point]
O=C(CCNC(=O)c1ccc([N+](=O)[O-])cc1)Nc1cccc(S(=O)(=O)N2CCCCC2)c1	inconclusive: 79.4 µM [inhibitor, partial curve]
CC(C)=CCCC(C)CN1CCC(n2nccc2NC(=O)C2CCCC2)CC1 (stereo unspecified)	inactive
CC(=O)Nc1nnc(SCc2cc(=O)c(OC(=O)c3ccccc3)co2)s1	inactive
COc1ccc(-c2nn(-c3ccccc3)cc2/C=N/N=C(N)N)cc1OC	inconclusive: 35.5 µM [inhibitor, partial curve]
O=[N+]([O-])c1cnc(N2CCCCC2)c([N+](=O)[O-])c1	inconclusive: 44.7 µM [inhibitor, partial curve]
CCOC(=O)/C(=C\c1ccc(C)cc1)NC(=O)c1ccccc1	inactive
O=C(CSc1nc(-c2ccccc2F)nc2cc(=O)[nH]n12)Nc1cccc(C(F)(F)F)c1	inconclusive: 79.4 µM [inhibitor, partial curve]
O=C(CCc1nc(-c2ccccc2)no1)NCc1ccccc1CN1CCOCC1	inactive

Compound	Potency
CC(=O)NC(c1ccc2ccccc2c1)c1ccc2cccnc2c1O (stereo unspecified)	active: 28.2 µM
CCN(CC)C(=O)Cn1c(=O)n(CC2CCC(C(=O)NC)CC2)c(=O)c2sccc21 (stereo unspecified)	inactive
CCOC(=O)CC(NC(=O)CCS(=O)(=O)c1ccc2c(c1)n(C)c(=O)c(=O)n2C)c1ccc(C)cc1 (stereo unspecified)	inactive
O=C(Nc1ccccc1Cl)C1CCCN1C(=O)OCc1ccccc1 (stereo unspecified)	inconclusive: 100 µM [inhibitor, single point]
Cc1cc2ccccc2c(=O)n1CC(=O)NCC(=O)N1CCN(c2ccccc2)CC1	inconclusive: 89.1 µM [inhibitor, single point]
CCN(CC)CCC(c1ccc(N(C)C)cc1)c1c(O)cc(OC)cc1OC (stereo unspecified)	active: 50.1 µM
CN(C(=O)COC(=O)Cc1c(F)cccc1Cl)c1c(N)n(Cc2ccccc2)c(=O)[nH]c1=O	inactive
Oc1ccc(NC(=S)N=Nc2c(O)[nH]c3ccc(Br)cc23)cc1	active: 20 µM
O=c1[nH]c(C(Cl)Cl)nc2sc3c(c12)CCN(Cc1ccccc1)C3	inconclusive: 50.1 µM [inhibitor, partial curve]
CCOC(Cn1c(SCc2cc(C(C)=O)ccc2OC)nc2ccccc2c1=O)OCC	inactive
O=[N+]([O-])c1cc([N+](=O)[O-])c(Oc2cncc(Cl)c2)cc1NC1CCCCCCC1	inconclusive: 3.55 µM [inhibitor, full curve, poor fit]
COc1ccc(C2NC(=O)NC(c3ccccc3)=C2c2nc3ccccc3s2)cc1 (stereo unspecified)	inconclusive: 70.8 µM [inhibitor, single point]
COc1ccc(OCc2n[nH]c(=S)n2N)cc1	active: 56.2 µM
O=C(O)c1ccc(N=c2oc3cc(O)ccc3cc2C(=O)NCc2ccccc2)cc1	inconclusive: 56.2 µM [inhibitor, partial curve]
COc1cc(OC)cc(C(=O)Nc2ncn[nH]2)c1	inconclusive: 89.1 µM [inhibitor, single point]
O=C(N/N=C/c1ccccc1O)C1SCCCS1	active: 79.4 µM
CN(C)c1ccc(C(CNS(=O)(=O)c2ccc(Br)cc2)N2CCCC2)cc1 (stereo unspecified)	active: 35.5 µM
O=C(Nc1nnc(Cc2ccccc2)s1)c1cnccn1	inconclusive: 89.1 µM [inhibitor, single point]
COC(=O)c1ccc(Cn2cc(/C=C\[N+](=O)[O-])c3ccccc32)o1	inconclusive: 39.8 µM [inhibitor, partial curve]
COc1cc(/C=N/NC(=O)c2ccc(COc3ccccc3Cl)o2)cc(Br)c1O	inconclusive: 89.1 µM [inhibitor, single point]
Cc1ccc(Cn2nnc3c(=O)[nH]c(C4CCCN(S(=O)(=O)c5ccc(F)cc5)C4)nc32)cc1 (stereo unspecified)	inconclusive: 3.55 µM [inhibitor, single point]
CCN(C(=O)CSc1nc2ccccc2n1CC(=O)Nc1ccccc1C)c1ccccc1	inconclusive: 7.94 µM [inhibitor, full curve, poor fit]
O=C(NC(=S)Nc1cccc(CO)c1)c1ccc(-c2ccccc2)cc1	inconclusive: 39.8 µM [inhibitor, full curve, poor fit]
